From PubChem BioAssay AID360 (National Center for Advancing Translational Sciences (NCATS), 2006)
In all, about 48,000 compounds went through this assay and about 550 (1.1%) were called active. Roughly 4% stayed inconclusive and do not appear here. No stated cut-off is given here; in the data, active means potency below about 15 µM; inconclusive means mostly about 16 µM to 33 µM; inactive means weaker than that. Some of the results follow.

The compounds below were run against Lysosomal acid glucosylceramidase (Homo sapiens) (UniProt P04062) (assay: Glucocerebrosidase). Conditions: purified enzyme, resorufin glucoside fluorescence (screen aimed at inhibitors), 20 min; series mostly up to 77 µM.
Summary of the method: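 Normal human glucocerebrosidase (0.2 nM final) was assayed with resorufin β-D-glucopyranoside (30 uM final) in 50mM citric acid/KH2PO4, 10mM sodium taurocholate, 0.01% tween-20, pH 5.9. Compounds were titrated; fluorescence (Ex 548, Em 600) read after 20 min at RT.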
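Further: the screen sought inhibitors.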
Potency means the concentration at half of the fitted maximal effect.

UniProt P04062, sequence (P04062 whole entry, looked up): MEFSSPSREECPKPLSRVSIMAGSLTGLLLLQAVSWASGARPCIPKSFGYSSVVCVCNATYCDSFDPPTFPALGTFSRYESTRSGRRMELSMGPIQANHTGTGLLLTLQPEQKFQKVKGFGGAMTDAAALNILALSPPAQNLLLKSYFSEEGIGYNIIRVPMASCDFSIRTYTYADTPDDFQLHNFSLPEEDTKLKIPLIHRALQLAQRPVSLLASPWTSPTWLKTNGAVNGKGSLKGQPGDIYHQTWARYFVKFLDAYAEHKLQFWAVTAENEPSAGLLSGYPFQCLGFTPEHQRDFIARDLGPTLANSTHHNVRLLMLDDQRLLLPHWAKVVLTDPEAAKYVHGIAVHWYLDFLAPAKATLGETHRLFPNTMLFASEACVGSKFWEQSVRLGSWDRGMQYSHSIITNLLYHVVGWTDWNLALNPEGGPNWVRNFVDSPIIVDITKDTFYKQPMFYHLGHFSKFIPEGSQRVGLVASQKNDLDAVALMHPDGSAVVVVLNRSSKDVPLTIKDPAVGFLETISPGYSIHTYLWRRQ

Potency, inactive:
CCCCCCC(=O)Nc1ccc(Cl)cn1 > 76.9 µM
COc1ccc(CN2CCN(C(=O)CN3C(=O)C4C5C=CC(C5)C4C3=O)CC2)c(OC)c1OC (configuration not stated) > 76.9 µM
CCOC(=O)c1ccc(COC(=O)c2cc3ccccc3oc2=O)o1 > 76.9 µM
COC(=O)C1=C(N)Oc2cc(C)n(Cc3ccncc3)c(=O)c2C1c1cccnc1 (configuration not stated) > 76.9 µM
CCN(CC)S(=O)(=O)c1csc(C(=O)Nc2ccccn2)c1 > 76.9 µM
Nc1nc(SCc2ccccc2)ns1 > 76.9 µM
COC(=O)c1c(C(=O)OC)c2ccncn2c1Cl > 76.9 µM
CCc1cc(=O)oc2cc3oc(C)c(C)c3cc12
CC1(C(=O)NC2CCCCCCC2)CCC(=O)N1Cc1cccnc1 (configuration not stated) > 76.9 µM
COc1ccc(OC)c(C2=NOC(C(=O)NCc3ccccn3)C2)c1 (configuration not stated) > 76.9 µM
COc1cc2c(=O)n(Cc3ccco3)c(=O)n(CC(=O)c3ccc(Br)cc3)c2cc1OC > 76.9 µM
CCC(=O)N1CCN(c2ccccc2NC(=O)COc2ccccc2Cl)CC1 > 76.9 µM
O=C(NC1CCCCCC1)c1nc2ncccn2n1 > 76.9 µM
CCCCOC(=O)C1=C(C)Nc2nnnn2C1c1ccc(OC)c(OC)c1OC (configuration not stated) > 76.9 µM
Cc1n[nH]c(C)c1S(=O)(=O)N1CCCC(C(=O)N2CCN(c3ccc(Cl)cc3)CC2)C1 (configuration not stated) > 76.9 µM
CC(C)(C)c1ccc(OCC(=O)NCc2ccco2)cc1 > 76.9 µM
Cc1cc(N2CCN(C(=O)c3ccco3)CC2)n2nc(-c3cccc(F)c3)cc2n1 > 76.9 µM
C=CCn1c(SCC(=O)Nc2ccc(C(=O)OCC)cc2)nnc1-c1cccs1 > 76.9 µM
Cc1occc1C(=O)Nc1ccccc1NC(=O)c1ccoc1C > 76.9 µM
CCOC(=O)c1cc2c(=O)n3cccc(C)c3nc2n(CCc2ccc(OC)c(OC)c2)c1=N > 76.9 µM
COc1ccc(-c2ccc(-c3noc(C)n3)c(OC)n2)cc1 > 76.9 µM
O=C(CCc1nc2ccccc2c(=O)[nH]1)NC1CCN(Cc2ccccc2)CC1 > 76.9 µM
Cc1cccc2sc(NC(=O)CCNS(=O)(=O)c3cccc4nonc34)nc12 > 76.9 µM
O=C(COc1ccc(S(=O)(=O)NCc2ccccc2)cc1Cl)N1CCOCC1
Cc1cccc(Cn2cnc3c(nnn3Cc3ccc(Cl)cc3)c2=O)c1 > 76.9 µM
CC(=O)c1cccc(NC(=O)N2C3CCC2CC(O)(c2cccnc2)C3)c1 (configuration not stated) > 76.9 µM
N#Cc1ccc(-c2ccco2)nc1SCc1ccccc1 > 76.9 µM
CCn1c(=O)n(CC(=O)Nc2cccc(OC)c2)c(=O)c2ccccc21
Cc1cccc(-c2nc(CN3CCCC(C(=O)NC4CCCC4)C3)c(C)o2)c1 (configuration not stated)
Cc1ccc(C(C(=O)NC2CCCCC2)N(CC2CCCO2)C(=O)CNC(=O)c2ccco2)cc1 (configuration not stated) > 76.9 µM
CCC1(C(=O)OC)NC(c2ccccc2OC)C2C(=O)N(C)C(=O)C21 (configuration not stated) > 76.9 µM
CCC(C)(C)n1nnnc1C(c1cc2cc3c(cc2[nH]c1=O)OCO3)N1CCN(C)CC1 (configuration not stated) > 76.9 µM
COc1cc(Cn2c(C(=O)O)cc3sccc32)cc(OC)c1OC > 76.9 µM
Cc1cccc(-c2noc(C3CCCCC3)n2)c1 > 76.9 µM
COc1ccc(C)cc1-n1c(N)c(C#N)c(C#N)c1-c1ccc(OC)c(OC)c1OC > 76.9 µM
Cc1nn(-c2ccccc2)c(C)c1C(=O)Nc1nnc(-c2ccco2)o1 > 76.9 µM
CCOC(=O)Nc1cccc(Nc2ccccc2)c1 > 76.9 µM
Cc1cc(C)n(-c2nc3ccccc3nc2Nc2ccc3[nH]c(=O)[nH]c3c2)n1 > 76.9 µM
COc1ccc(C2CCN(Cc3cccnc3)CC2O)cc1 (configuration not stated) > 76.9 µM
O=C(CCn1c(=O)oc2ccccc21)N1CCCCCC1 > 76.9 µM
O=C(Cc1cccs1)Nc1nnc(SCC(=O)NC2CCCCC2)s1 > 76.9 µM
CCOC(=O)c1cn(CC(=O)Nc2ccc(C)cc2)nn1 > 76.9 µM
NC(=O)c1ccc(-n2nnnc2Oc2ccccc2C(=O)N2CCOCC2)cc1 > 76.9 µM
CN(c1ccccc1)S(=O)(=O)c1cc(C(=O)c2nccn2C)ccc1Cl > 76.9 µM
COCCn1c(SCC(=O)Nc2cccc(C)c2)nnc1C(C)C > 76.9 µM
CCOC(=O)c1ccc(NS(=O)(=O)c2cc(-c3nnnn3C(C)C)ccc2OC)cc1 > 76.9 µM
COC(=O)c1c(C#N)c(N)nc2c1CCCC2 > 76.9 µM
O=C(c1cc2ccccc2o1)n1nnc2ccccc21 > 76.9 µM
c1ccc(CCc2nc(-c3ccncc3)no2)cc1 > 76.9 µM
Cn1c(=O)oc2cc(S(=O)(=O)NCC3CCCO3)ccc21 (configuration not stated) > 76.9 µM
CCn1c(SCc2ccc(C)cc2)nnc1-c1cnccn1 > 76.9 µM
CCOC(=O)C1CCN(C(c2cc3ccc(C)cc3[nH]c2=O)c2nnnn2C2CCCCC2)CC1 (configuration not stated) > 76.9 µM
O=C(NCCN1CCN(C(=O)c2cccs2)CC1)c1cccs1 > 76.9 µM
O=C(CSc1nc2ccccc2c(=O)n1CC1CCCO1)N1CCN(c2ccccc2)CC1 (configuration not stated) > 76.9 µM
CCn1c(C(=O)N2CCCC(C(=O)O)C2)cc2sccc21 (configuration not stated) > 76.9 µM
COc1ccc(CCNC(=O)c2c[nH]c3ccccc3c2=O)cc1OC > 76.9 µM
CC(C(N)=O)N1C(=O)C2C3C=CC(C3)C2C1=O (configuration not stated) > 76.9 µM
Cc1c(NC(=O)CSc2nnc3sc4ccccc4n23)c(=O)n(-c2ccccc2)n1C > 76.9 µM
O=C(NCc1ccccc1)c1c(O)c2cccc3c2n(c1=O)CCC3 > 76.9 µM
COc1ccc(-c2noc(CCC(=O)Nc3ccc(C)c(C)c3)n2)cc1 > 76.9 µM
CC(C(=O)NCCCN1CCOCC1)n1cccc1C(=O)c1ccccc1 (configuration not stated) > 76.9 µM
CCN(C(C)=O)c1nnc(CSc2nc3ccccc3s2)s1 > 76.9 µM
Nc1scc(-c2ccncc2)c1Cl > 76.9 µM
CCCOc1c(OC)cccc1C1CC(=O)Nc2cc3c(cc21)OCCO3 (configuration not stated) > 76.9 µM
CCC1CCCCN1C(=O)Cn1c(=O)oc2ccccc21 (configuration not stated) > 76.9 µM
COc1ccccc1C1C(C(=O)c2cc3ccccc3o2)=C(O)C(=O)N1CCN(C)C (configuration not stated) > 76.9 µM
CC(C)=CCCC(C)CN1CCC(O)CC1 (configuration not stated) > 76.9 µM
COC(=O)c1ccccc1NC(=O)c1cccc(NC(=O)c2ccc(Br)o2)c1C > 76.9 µM
CC(=O)c1c(C)[nH]c(C(=O)OCc2nnc(-c3ccccc3)o2)c1C > 76.9 µM
O=C(O)CCSc1nnc(-c2ccncc2)n1-c1ccccc1 > 76.9 µM
CCCCn1c(CN(Cc2ccccc2)Cc2ccccc2)nc2c1c(=O)n(C)c(=O)n2C > 76.9 µM
Cc1ccccc1NS(=O)(=O)c1ccc(F)cc1 > 76.9 µM
C=CCn1c(SCC(=O)c2cc(C)n(C(C)COC)c2C)nc2sc(C)c(C)c2c1=O (configuration not stated) > 76.9 µM
CCNCC(O)COCC(O)CNCC (configuration not stated) > 76.9 µM
CCn1c(N2CCN(CC(=O)c3c(C)n(C)c4ccccc34)CC2)nc2c1c(=O)[nH]c(=O)n2C > 76.9 µM
O=C(CSc1nnnn1-c1ccccc1)c1cc2ccccc2oc1=O > 76.9 µM
COc1ccc(OCc2nn3c(-c4ccco4)nnc3s2)cc1 > 76.9 µM
O=C(COC(=O)c1ccc(Br)o1)NCCCc1ccccc1 > 76.9 µM
c1ccc(NCCCNc2ccccc2)cc1 > 76.9 µM
CSc1nc(N)c(C#N)c(-c2ccc(Cl)cc2)c1C#N > 76.9 µM
c1csc(CSc2nnc3sc4ccccc4n23)c1 > 76.9 µM
COc1ccc(CCNC(=O)CSC2=Nc3ccccc3C3=NC(C(C)C)C(=O)N23)cc1OC (configuration not stated) > 76.9 µM
COc1cc(NC(=O)C2CCCN2C(=O)OCc2ccccc2)cc(OC)c1 (configuration not stated)
O=C(CCCN1C(=O)c2ccccc2C1=O)NCCC1=CCCCC1 > 76.9 µM
Cc1ccccc1-n1c(C)nnc1SCC(=O)N1CC(=O)Nc2ccccc21 > 76.9 µM
O=C(CC(=O)NCc1cccnc1)NCc1cccnc1 > 76.9 µM
CC(=O)Nc1c(C(=O)O)oc2ccc(Cl)cc12 > 76.9 µM
O=C(COc1cnc2ccccc2n1)NCCC1=CCCCC1 > 76.9 µM
Cc1ccccc1CS(=O)(=O)CCC(=O)N1CCN(c2ccc(N3CCOCC3)nn2)CC1 > 76.9 µM
O=C(CSc1n[nH]c(=O)[nH]c1=O)c1ccccc1 > 76.9 µM
Cc1cccn2c(=O)c(C=Nc3c(C)n(C)n(-c4ccccc4)c3=O)c(N3CCCC3)nc12 > 76.9 µM
CCOC(=O)C(C(=O)OCC)[C@@H]1CS(=O)(=O)C[C@H]1C(C(=O)OCC)C(=O)OCC > 76.9 µM
